Reference: patent US20220119459A1 (OXFORD UNIVERSITY INNOVATION, published 2022)

T1: peptide containing SpyTag002 (KGVPTIVMVDAYKRYK)
T1 construct: also called SpyTag002 peptide
T1 peptide: KGVPTIVMVDAYKRYK

B1: SpyCatcher (designed binder)
chain: not shown
notes: also called WT SpyCatcher; wt SpyCatcher
B2: SpyCatcher002 (designed binder)
chain: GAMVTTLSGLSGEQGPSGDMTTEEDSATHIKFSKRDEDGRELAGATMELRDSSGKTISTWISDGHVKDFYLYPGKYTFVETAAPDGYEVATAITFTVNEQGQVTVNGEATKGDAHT
notes: also called SC002; D5T SpyCatcher002

Tests used:
SpyTag002-MBP = target: T2, SpyTag002-MBP; assay: second-order rate of isopeptide bond formation, SDS-PAGE densitometry; succinate-phosphate-glycine buffer pH 7.0, 25 °C; mean ± 1 s.d., n = 3
T2 construct: not shown: made by QuikChange from pET28a SpyTag-MBP

SpyTag-MBP = target: T3, SpyTag-MBP; assay: as above
T3 construct: also called WT SpyTag-MBP; not shown: pET28a SpyTag-MBP, Addgene plasmid ID 35050; limits, linker and purification tag not stat

[1] = target: T1, peptide containing SpyTag002 …; assay: electrospray ionization mass spectrometry; 95 µM SpyCatcher002 with 220 µM peptide, 3 h, 25 °C, PBS pH 7.5

Binder | Rate constant (SpyTag002-MBP) | Rate constant (SpyTag-MBP) | binding result [1]
B1 | 10300 M⁻¹ s⁻¹ | 1680 M⁻¹ s⁻¹ | 
B2 | 20200 M⁻¹ s⁻¹ | 5470 M⁻¹ s⁻¹ | binds
